The DeepSol protein solubility set

Assay: soluble on expression in E. coli; label from the status in PepcDB or PDB records

Sequence	soluble on expression in E. coli
IGDEPLENYLDTEYFGTIGIGTPAQDFTVIFDTGSSNLWVPSVYCSSLACSDHNQFNPDDSSTFEATSQELSITYGTGSMTGILGYDTVQVGGISDTNQIFGLSETEPGSFLYYAPFDGILGLAYPSISASGATPVFDNLWDQGLVSQDLFSVYLSSNDDSGSVVLLGGIDSSYYTGSLNWVPVSVEGYWQITLDSITMDGETIACSGGCQAIVDTGTSLLTGPTSAIANIQSDIGASENSDGEMVISCSSIDSLPDIVFTINGVQYPLSPSAYILQDDDSCTSGFEGMDVPTSSGELWILGDVFIRQYYTVFDRANNKVGLAPVA	soluble
MGKRAAHIGLRALADLATPMAVRVAATLRVADHIAAGHRTAAEIASAAGAHADSLDRLLRHLVAVGLFTRDGQGVYGLTEFGEQLRDDHAAGKRKWLDMNSAVGRGDLGFVELAHSIRTGQPAYPVRYGTSFWEDLGSDPVLSASFDTLMSHHLELDYTGIAAKYDWAALGHVVDVGGGSGGLLSALLTAHEDLSGTVLDLQGPASAAHRRFLDTGLSGRAQVVVGSFFDPLPAGAGGYVLSAVLHDWDDLSAVAILRRCAEAAGSGGVVLVIEAVAGDEHAGTGMDLRMLTYFGGKERSLAELGELAAQAGLAVRAAHPISYVSIVEMTAL	soluble
MKSLSPAPLVELQQICKHYTSGQNVVKALDGVDLTIRHGEFLAILGPSGSGKSTLMNVLGCLDKPTAGRYQLDGHPVDSLSTQQLAAIRNQKIGFVFQSFNLLEYASALDNVALPLVYAGVKAKDRRRRATELLTRVGLADRLDHKPNQLSGGQKQRVAIARALINQPQILLADEPTGALDSKSGAEIEALFNELHREGRTIIVVTHDNELAKRTKRIVTIRDGQVVSDEPTA	not soluble
